Results as given in the supplement of paper PMC4967469.
A lower IC50 marks a more sensitive line; fits outside the tested doses are given as limits. AUC is the area under the same curve over the 256-fold range up to the top dose, as a fraction: 1 means no effect, lower means more sensitive. Any top dose called inferred is not printed in the source and was worked back from the curve model.

Compound: Cn1cc(C2=C(c3cn(C4CCN(Cc5ccccn5)CC4)c4ccccc34)C(=O)NC2=O)c2ccccc21 [LY317615]
Experiment: Viability of human cancer cell lines after 72 h of drug (GDSC screen)
Settings: top dose inferred
Procedure: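 Human cancer cell lines in 384-well plates, medium with 10% serum, drug for 72 h over a 256-fold dose range (nine 2-fold or five 4-fold steps up to the top dose). Adherent lines were fixed and stained with the nucleic acid dye Syto60, suspension lines read with resazurin; signal relative to control wells, capped at 0 and 100%. One two-parameter sigmoid per drug and line, fitted in a mixed model over all curves with the slope shared within a line.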

Cell Line | AUC | IC50
RT4 (bladder, adherent, top dose 20 µM) | 0.864 | 18.9 µM
RPMI-8402 (T-cell lymphoblastic leukaemia, suspension, top dose 20 µM) | 0.505 | 1.28 µM
JEG-3 (urogenital system, adherent, top dose 20 µM) | 0.989 | > 20 µM
OV-56 (ovary, adherent, top dose 20 µM) | 0.862 | 16 µM
no-10 (glioma, adherent, top dose 20 µM) | 0.891 | > 20 µM
UACC-812 (breast, adherent, top dose 20 µM) | 0.891 | > 20 µM
KOPN-8 (B-cell leukaemia, suspension, top dose 20 µM) | 0.791 | 7.59 µM
KG-1 (acute myeloid leukaemia, suspension, top dose 20 µM) | 0.905 | > 20 µM
H3255 (lung adenocarcinoma, adherent, top dose 20 µM) | 0.835 | 16.9 µM
VMRC-RCW (kidney, adherent, top dose 20 µM) | 0.886 | 19.3 µM
L-540 (Hodgkin lymphoma, suspension, top dose 20 µM) | 0.932 | > 20 µM
NCI-H524 (small cell lung carcinoma, suspension, top dose 20 µM) | 0.911 | > 20 µM
TGBC24TKB (biliary tract, adherent, top dose 20 µM) | 0.93 | > 20 µM
NCI-H838 (lung adenocarcinoma, adherent, top dose 20 µM) | 0.98 | > 20 µM
FTC-133 (thyroid, adherent, top dose 20 µM) | 0.979 | > 20 µM
HCT-15 (large intestine, adherent, top dose 20 µM) | 0.843 | 15.5 µM
CAL-12T (non-small cell lung carcinoma, adherent, top dose 20 µM) | 0.708 | 5.22 µM
SW1990 (pancreas, adherent, top dose 20 µM) | 0.966 | > 20 µM
NCI-H1770 (non-small cell lung carcinoma, suspension, top dose 20 µM) | 0.903 | > 20 µM
Hs-578-T (breast, adherent, top dose 20 µM) | 0.981 | > 20 µM

Cell Line | AUC | IC50
HCC1187 (breast, suspension, top dose 20 µM) | 0.912 | > 20 µM
HCC1806 (breast, adherent, top dose 20 µM) | 0.947 | > 20 µM
NCI-H211 (small cell lung carcinoma, adherent, top dose 20 µM) | 0.616 | 2.58 µM
H9 (lymphoid neoplasm, suspension, top dose 20 µM) | 0.719 | 4.55 µM
OCUM-1 (stomach, adherent, top dose 20 µM) | 0.987 | > 20 µM
SK-MEL-30 (melanoma, adherent, top dose 20 µM) | 0.93 | > 20 µM
RPMI-7951 (melanoma, adherent, top dose 20 µM) | 0.793 | 8.86 µM
NCI-H1666 (lung adenocarcinoma, semi-adherent, top dose 20 µM) | 0.978 | > 20 µM
IST-MEL1 (melanoma, adherent, top dose 20 µM) | 0.886 | > 20 µM
IHH-4 (thyroid, semi-adherent, top dose 20 µM) | 0.99 | > 20 µM
NCI-H847 (small cell lung carcinoma, adherent, top dose 20 µM) | 0.906 | 18.1 µM
WM-115 (melanoma, adherent, top dose 20 µM) | 0.827 | 16 µM
VA-ES-BJ (soft tissue, adherent, top dose 20 µM) | 0.96 | > 20 µM
HT-1376 (bladder, adherent, top dose 20 µM) | 0.985 | > 20 µM
ESO26 (oesophagus, adherent, top dose 20 µM) | 0.66 | 3.38 µM
EW-7 (Ewing sarcoma, semi-adherent, top dose 20 µM) | 0.789 | 7.7 µM
LU-65 (large cell lung carcinoma, suspension, top dose 20 µM) | 0.817 | 13.9 µM
SCC-15 (head and neck, adherent, top dose 20 µM) | 0.953 | > 20 µM
D-336MG (glioma, adherent, top dose 20 µM) | 0.832 | 18.1 µM
